Measurements taken from the supplement of paper PMC3334620.
Whole data set: some 33,000 sequences, median “E-score (-0.5 to 0.5)” near -0.017, cut for the highest 2% near 0.3. This is one part of the list.

What follows are sequences tested against T1, Sut1 (UniProt P53032) (assay: PBM E-score (8-mer binding enrichment) (E-score (-0.5 to 0.5)); higher = stronger / more preferred TF binding; most listed sequences are background and not binding sites). Conditions: protein concentration: 200 nM; construct: GST-full length.
T1 sequence: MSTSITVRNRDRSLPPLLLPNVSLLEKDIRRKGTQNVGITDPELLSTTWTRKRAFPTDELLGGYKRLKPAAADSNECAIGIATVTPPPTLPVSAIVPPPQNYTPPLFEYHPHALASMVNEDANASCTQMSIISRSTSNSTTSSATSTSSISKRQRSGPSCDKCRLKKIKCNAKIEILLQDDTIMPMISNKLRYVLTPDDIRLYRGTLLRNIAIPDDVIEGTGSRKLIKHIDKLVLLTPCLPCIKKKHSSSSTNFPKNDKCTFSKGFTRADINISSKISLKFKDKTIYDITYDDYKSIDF
Protocol: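 Universal 'all 10-mer' protein binding microarrays (Agilent AMADID 015681) probed with GST-tagged S. cerevisiae TFs (full-length or DBD) made by in vitro transcription/translation (PURExpress), about 100-200 nM. Bound TF was detected with fluorescent anti-GST. Each ungapped 8-mer (which stands for itself and its reverse complement) is scored by the PBM enrichment score (E-score), a modified Wilcoxon-Mann-Whitney statistic from -0.5 to +0.5, computed with the Universal PBM Analysis Suite. Scale: above 0.35 generally sequence-specific binding.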

Q: Which “PBM E-score” value does the source give for CGTCGTGA here?
A: -0.203

Q: Which “PBM E-score” value does the source give for GCCCCGCC here?
A: -0.145

Q: For CCTTCATA, which “PBM E-score” value is on record?
A: 0.131

Q: How did the “PBM E-score” value turn out when ACTATGAA was run?
A: 0.176

Q: ATGGGCGA was tested. Which “PBM E-score” value did it give?
A: -0.235

Q: For CGCAGCTC, which “PBM E-score” value is on record?
A: -0.0365

Q: Which “PBM E-score” value does the source give for GGAGTCAC here?
A: 0.21

Q: For GCCTTTCA, which “PBM E-score” value is on record?
A: 0.0144

Q: How did the “PBM E-score” value turn out when ATGGCAGG was run?
A: -0.136

Q: For GTCCGCAA, which “PBM E-score” value is on record?
A: 0.298

Q: With AGACAAGG as the sequence, how does the “PBM E-score” value read?
A: -0.0403

Q: Which “PBM E-score” value does the source give for CGGCAGCA here?
A: -0.185

Q: With CGACTTCC as the sequence, how does the “PBM E-score” value read?
A: 0.017

Q: GCGCTTAA was tested. Which “PBM E-score” value did it give?
A: -0.0252

Q: How did the “PBM E-score” value turn out when TCGTGGCA was run?
A: -0.0581

Q: For AGGTCGCG, which “PBM E-score” value is on record?
A: -0.171

Q: ACCTACCA was tested. Which “PBM E-score” value did it give?
A: -0.0122

Q: CGAGAGGC was tested. Which “PBM E-score” value did it give?
A: -0.235

Q: AAATACTC was tested. Which “PBM E-score” value did it give?
A: 0.157

Q: How did the “PBM E-score” value turn out when GCGTCTAA was run?
A: -0.155

Q: With ATGGCGGG as the sequence, how does the “PBM E-score” value read?
A: -0.11

Q: With CGCTAGAA as the sequence, how does the “PBM E-score” value read?
A: -0.109

Q: Which “PBM E-score” value does the source give for AGTTGAGG here?
A: -0.0723

Q: With ACTTATCC as the sequence, how does the “PBM E-score” value read?
A: 0.143

Q: With AAGGTTTC as the sequence, how does the “PBM E-score” value read?
A: 0.156

Q: GCCTGGAC was tested. Which “PBM E-score” value did it give?
A: -0.336

Q: How did the “PBM E-score” value turn out when ACCTGCTA was run?
A: -0.134

Q: GAGCTTGA was tested. Which “PBM E-score” value did it give?
A: -0.0638

Q: Which “PBM E-score” value does the source give for CGGAACCC here?
A: -0.0296

Q: AGAGAAGG was tested. Which “PBM E-score” value did it give?
A: -0.19

Q: For ATTGAATC, which “PBM E-score” value is on record?
A: 0.00919

Q: How did the “PBM E-score” value turn out when AGACTAAG was run?
A: -0.08

Q: How did the “PBM E-score” value turn out when ATTTCACG was run?
A: 0.097

Q: CCATAACG was tested. Which “PBM E-score” value did it give?
A: -0.052

Q: For GAGCCTGA, which “PBM E-score” value is on record?
A: -0.0214

Q: For GGAAAATA, which “PBM E-score” value is on record?
A: 0.226

Q: How did the “PBM E-score” value turn out when AACGTCTA was run?
A: 0.0273

Q: With ATAACTTC as the sequence, how does the “PBM E-score” value read?
A: 0.156

Q: CCCTTGAG was tested. Which “PBM E-score” value did it give?
A: -0.142

Q: With GCCACTGA as the sequence, how does the “PBM E-score” value read?
A: -0.118

Q: For GAAGGTTA, which “PBM E-score” value is on record?
A: 0.0509

Q: AAGGAGGA was tested. Which “PBM E-score” value did it give?
A: -0.173

Q: GCCAGAGA was tested. Which “PBM E-score” value did it give?
A: -0.213

Q: CATGAGGG was tested. Which “PBM E-score” value did it give?
A: -0.23

Q: With GTAGAGGA as the sequence, how does the “PBM E-score” value read?
A: -0.0611

Q: With CATTTGTC as the sequence, how does the “PBM E-score” value read?
A: 0.126

Q: CATACTGA was tested. Which “PBM E-score” value did it give?
A: 0.0321

Q: For ACCCTCGG, which “PBM E-score” value is on record?
A: 0.0508

Q: For GACATACA, which “PBM E-score” value is on record?
A: 0.196

Q: How did the “PBM E-score” value turn out when ACTAACTG was run?
A: 0.173

Q: AACGCCGT was tested. Which “PBM E-score” value did it give?
A: -0.0439

Q: Which “PBM E-score” value does the source give for AATCAGCG here?
A: 0.0776

Q: For GCTGTATA, which “PBM E-score” value is on record?
A: -0.0571

Q: For ACACTGGA, which “PBM E-score” value is on record?
A: -0.0901

Q: Which “PBM E-score” value does the source give for GCATGGGA here?
A: -0.265

Q: How did the “PBM E-score” value turn out when AAATTCTC was run?
A: 0.0733

Q: With GATCCCAA as the sequence, how does the “PBM E-score” value read?
A: 0.0759

Q: How did the “PBM E-score” value turn out when CGACCTGA was run?
A: -0.184

Q: For CCTATTGC, which “PBM E-score” value is on record?
A: -0.0728

Q: Which “PBM E-score” value does the source give for AAATACCT here?
A: 0.116

Q: Which “PBM E-score” value does the source give for AAGACTGC here?
A: -0.129

Q: For ACACAGCA, which “PBM E-score” value is on record?
A: 0.0686

Q: TAAATAGA was tested. Which “PBM E-score” value did it give?
A: 0.0796

Q: How did the “PBM E-score” value turn out when AGCGACTG was run?
A: -0.0885

Q: For CAGGAGCA, which “PBM E-score” value is on record?
A: -0.0774

Q: For GCGGCCGA, which “PBM E-score” value is on record?
A: -0.139

Q: Which “PBM E-score” value does the source give for CATCGTCC here?
A: -0.0367

Q: With ATCACACG as the sequence, how does the “PBM E-score” value read?
A: -0.0185

Q: Which “PBM E-score” value does the source give for ATTCTGAA here?
A: 0.0968

Q: Which “PBM E-score” value does the source give for CGGTTTGA here?
A: -0.0544

Q: Which “PBM E-score” value does the source give for AGGGTTTG here?
A: -0.0833

Q: How did the “PBM E-score” value turn out when CACCGCGC was run?
A: -0.135

Q: AAGTTTAG was tested. Which “PBM E-score” value did it give?
A: 0.141

Q: With AGCCTCAG as the sequence, how does the “PBM E-score” value read?
A: -0.139

Q: CCGAGCGG was tested. Which “PBM E-score” value did it give?
A: 0.0656

Q: AGGAATCG was tested. Which “PBM E-score” value did it give?
A: 0.0824

Q: How did the “PBM E-score” value turn out when CATGGTGC was run?
A: -0.174

Q: With GTCATTTA as the sequence, how does the “PBM E-score” value read?
A: 0.0178

Q: Which “PBM E-score” value does the source give for CGGTTTGC here?
A: -0.0302

Q: Which “PBM E-score” value does the source give for AAAGATTG here?
A: -0.0192

Q: ACTTAGGG was tested. Which “PBM E-score” value did it give?
A: -0.0378

Q: For GGGCGGCA, which “PBM E-score” value is on record?
A: -0.153

Q: With CTGAATCC as the sequence, how does the “PBM E-score” value read?
A: -0.0454

Q: Which “PBM E-score” value does the source give for GGATGAGA here?
A: -0.0777

Q: Which “PBM E-score” value does the source give for ATTGGTGA here?
A: 0.0125

Q: For CGTGGTGC, which “PBM E-score” value is on record?
A: -0.117

Q: How did the “PBM E-score” value turn out when ATTACACA was run?
A: 0.234

Q: How did the “PBM E-score” value turn out when CCACATGC was run?
A: -0.00682

Q: Which “PBM E-score” value does the source give for GAGTTCAA here?
A: 0.152

Q: With ACCGCGAT as the sequence, how does the “PBM E-score” value read?
A: 0.117

Q: For AAGATCCC, which “PBM E-score” value is on record?
A: -0.0518

Q: How did the “PBM E-score” value turn out when AGGCGATC was run?
A: -0.0705

Q: How did the “PBM E-score” value turn out when TCTTCTCA was run?
A: 0.143

Q: Which “PBM E-score” value does the source give for CGCGGGAG here?
A: -0.257
